Target: T1, mB7-H3 on neovasculature of mammary tumors (Mus musculus, UniProt Q8VE98)
T1 construct: from tissue; host or cells: mammary tumours and normal mammary glands of FVB/N-Tg(MMTV-PyMT)634Mul mice, in vivo
T1 sequence (Q8VE98 29-316): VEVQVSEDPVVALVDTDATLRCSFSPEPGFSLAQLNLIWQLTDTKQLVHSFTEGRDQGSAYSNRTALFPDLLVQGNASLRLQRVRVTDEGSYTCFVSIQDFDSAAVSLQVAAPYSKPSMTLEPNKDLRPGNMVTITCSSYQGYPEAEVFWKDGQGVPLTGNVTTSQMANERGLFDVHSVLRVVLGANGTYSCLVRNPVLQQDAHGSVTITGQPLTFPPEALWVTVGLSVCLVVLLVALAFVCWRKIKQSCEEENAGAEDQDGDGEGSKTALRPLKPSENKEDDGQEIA
Assay: In vivo ultrasound molecular imaging in transgenic breast cancer mouse model FVB/N-Tg(MMTV-PyMT)634Mul
Source text: Shown in FIGS. 5 and 6 are in vivo ultrasound molecular imaging of transgenic breast cancer mouse model (FVB/N-Tg(MMTV-PyMT)634Mul/J) using MB-B7-H3-affibody. All experiments were approved by the Institutional Administrative Panel on Laboratory Animal Care. The transgenic mouse model of breast cancer development FVB/N-Tg(MMTV-PyMT)634Mul was used. The mammary tissue of this transgenic mouse model progresses through four distinct histological stages from normal mammary tissues, through hyperplasia, to ductal carcinoma in situ (DCIS), and finally invasive breast carcinoma which highly recapitulates human breast cancer.
For this study, inguinal mammary glands with invasive breast carcinoma were imaged by USMI (mean age, 7 weeks; range, 4-10 weeks) with 12 mammary tumors). Four control litter mates with normal mammary glands were used as controls. Mice were kept anesthetized with 2% isoflurane in oxygen at 2 Limin on a heated stage for 37° C. throughout the ultrasound imaging sessions. In an intra-animal comparison experiments, molecularly-targeted MBs (5×10^7 MB-B7-H3-affibody, MB-anti-B7-H3-antibody, and MB-Non-targeted) were injected intravenously through the tail vein of mice in random order to minimize any bias. Between imaging sessions using the three different contrast agents, a waiting interval of 30 min was used to allow for clearance of MBs from the vasculature. Also, at 30 min it was confirmed by USMI that no remaining MBs were present from the previous injection. In addition, control litter mates with normal mammary glands were scanned as tumor angiogenesis-negative models after the injection of all MB types to assess the contrast enhancement of non-angiogenic microvasculature. To further confirm binding specificity of molecularly-targeted MBs, an in vivo competition experiment was performed. In a subgroup of breast cancer-bearing mice, in vivo blocking of B7-H3 by injecting 100-150 μg B7-H3-affibody via the tail vein was performed in order to block binding of MB-B7-H3-affibody to its target B7-H3.
All in vivo imaging studies were performed in contrast mode using a small-animal high resolution ultrasound imaging system (Vevo2100; VisualSonics, Canada). Images were acquired with a 21-MHz high-resolution linear transducer (M5250, VisualSonics; lateral and axial resolution of 165 μm and 75 μm, respectively), and all imaging parameters (focal length, 8 mm; transmit power, 10%; mechanical index, 0.2; dynamic range, 40 dB and a center frequency of 18 MHz) were kept constant during all imaging sessions. The transducer was fixed on a railing system to maintain the acoustic focus at the center of the mammary gland at the level of the largest transverse cross section.
In addition, the transgenic mouse model of breast cancer development FVB/N-Tg(MMTV-PyMT)634Mul was used (The Jackson Laboratory) (21). The mammary tissue of this transgenic mouse model progresses through four distinct histological stages from normal mammary tissues, hyperplasia, ductal carcinoma in situ, and finally invasive breast carcinoma which highly recapitulates human breast cancer. For this study, female mice (mean age, 7 weeks; range, 4-10 weeks) with 10 mammary glands with invasive breast carcinoma were imaged with a mean size of 7 mm (range 5-9 mm) by US molecular imaging. The litter mates with normal mammary glands were used as controls,
Ultrasound (US) molecular imaging. Contrast-enhanced US imaging was performed using a dedicated small-animal high resolution US imaging system (Veno 2100; VisualSonics). All mice were kept anesthetized with 2% isoflurane in room air at 2 L/min on a heated stage at 37° C. throughout the US molecular imaging sessions. Image acquisition was performed in the transverse plane using a high-resolution transducer (MS250; center frequency, 18MHz, lateral and axial resolution of 165 μm and 75 μm, respectively; focal length, 8 mm; transmit power, 10%; mechanical index, 0.2; dynamic range, 40 dB). […]

binding to normal breast tissue, in vivo ultrasound imaging (FIG. 6) (Example 1): do not bind | targeted imaging signal in transgenic mice with breast tumors (Example 1, 5×10^7 MB intravenously, 12 mammary tumors): 5.45±1.18 a.u. | decrease of imaging signal after in vivo blocking of B7-H3 receptors with free B7-H3-affibody (Example 1, 100-150 μg B7-H3-affibody via tail vein, compared to tumors without blocking agent): ~60% | imaging signal in normal mice mammary glands (Example 1, control litter mates with normal mammary glands): 1.26±0.37 a.u. | in vivo ultrasound molecular imaging signal of tumors (Example 1, tumors n=9): 4.92±1.12 a.u. | US molecular imaging signal from mammary tumors of transgenic mice (Example 3, MMTV-PyMT, 5×10^7 MB intravenously): 9.6±2.0 a.u. | US imaging signal in normal mammary gland (Example 3, age-matched control littermates): 2.3±0.5 a.u. | US molecular imaging signal from tumors after in vivo blocking of mB7-H3 receptors (Example 3, free ABY (150 μg) 24 hours prior to imaging, n=5): 0.4±0.2 a.u. | US molecular imaging signal from tumors before blocking (Example 3, same animals imaged before blocking, n=5): 4.3±1.0 a.u.
B1: MBABY-B7-H3: contrast microbubbles functionalized with ABYB7-H3 (biotinylated ABY on streptavidin-coated, lipid-shelled perfluorocarbon MB) (conjugate)
chain: AEAKYAKEKIFAVGEIYWLPNLTHGQIMAFIAALNDDPSQSSELLSEAKKLNDSQAPKHHHHHH

— patent US12274759B2, “Affibody proteins specific for B7-H3 (CD276)” (THE BOARD OF TRUSTEES OF THE LELAND STANFORD JUNIOR …, priority 2018, dated 2025)
